Some of the results follow. Single values are uncertain, as repeats are few or missing.
What was measured:
Experiment in all cases: cell count relative to DMSO control; melanoma cells; higher = more viable cells
Details in all cases: library dose: low library concentration; 72 h
[1] = tested on: MZ2-MEL
[2] = tested on: MeWo
[3] = tested on: RPMI7951
[4] = tested on: RVH-421
[5] = tested on: SkMel28
[6] = tested on: SkMel2
[7] = tested on: SkMel30
[8] = tested on: SkMel5
[9] = tested on: UACC257
[10] = tested on: UACC62
[11] = tested on: WM115
[12] = tested on: WM1716
[13] = tested on: WM1745
[14] = tested on: WM3526
[15] = tested on: WM3619
[16] = tested on: WM451Lu
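Further: cell number obtained by counting DAPI-stained nuclei in high-throughput microscope images with image analysis software, screen run in 1,536-well plates.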

SMILES | cell count [1] [%] | cell count [2] [%] | cell count [3] [%] | cell count [4] [%] | cell count [5] [%] | cell count [6] [%] | cell count [7] [%] | cell count [8] [%] | cell count [9] [%] | cell count [10] [%] | cell count [11] [%] | cell count [12] [%] | cell count [13] [%] | cell count [14] [%] | cell count [15] [%] | cell count [16] [%]
Cn1cnc2c(F)c(Nc3ccc(Br)cc3Cl)c(C(=O)NOCCO)cc21 [selumetinib] + NCC(=O)Nc1ccc(-n2nc(C(F)(F)F)cc2-c2ccc3c(ccc4ccccc43)c2)cc1 [OSU03012] (first compound 0.015 µM, partner dose 1 µM) | 95.4 | 57.3 | 116 | 94 | 85 | 72.1 | 52.6 | 103 | 68.9 | 67.2 | 86.3 | 118 | 113 | 51.8 | 73.3 | 71.3
Cn1cnc2c(F)c(Nc3ccc(Br)cc3Cl)c(C(=O)NOCCO)cc21 [selumetinib] + O=C(CCCCCCC(=O)Nc1ccccc1)NO [vorinostat] (first compound 0.015 µM, partner dose 0.08 µM) | 97.8 | 96.7 | 109 | 102 | 95.5 | 82.5 | 79.1 | 123 | 73.7 | 76.5 | 108 | 108 | 88.5 | 78.8 | 81.8 | 74.3
COc1cc([C@@H]2c3cc4c(cc3[C@@H](O[C@@H]3O[C@@H]5CO[C@@H](C)O[C@H]5[C@H](O)[C@H]3O)[C@H]3COC(=O)[C@H]23)OCO4)cc(OC)c1O [etoposide] + C[C@@H]1CCN(C(=O)CC#N)C[C@@H]1N(C)c1ncnc2[nH]ccc12 [CP690550] (first compound 0.02 µM, partner dose 1 µM) | 103 | 99.6 | 124 | 99.4 | 102 | 90.4 | 108 | 104 | 91.3 | 99.7 | 110 | 98 | 96.3 | 105 | 80.7 | 128
Cn1cnc2c(F)c(Nc3ccc(Br)cc3Cl)c(C(=O)NOCCO)cc21 [selumetinib] + Oc1cc(-c2nc(-c3ccccc3)[nH]c2-c2ccncc2)ccc1Cl [L779450] (first compound 0.015 µM, partner dose 0.2 µM) | 108 | 100 | 86.6 | 81.9 | 57.8 | 42.6 | 87 | 90.3 | 85 | 50.9 | 58.3 | 116 | 79.3 | 50.6 | 75.5 | 80.7
Cn1cnc2c(F)c(Nc3ccc(Br)cc3Cl)c(C(=O)NOCCO)cc21 [selumetinib] + CO[C@@H]1[C@H](N(C)C(=O)c2ccccc2)C[C@H]2O[C@]1(C)n1c3ccccc3c3c4c(c5c6ccccc6n2c5c31)C(=O)NC4 [Midostaurin] (first compound 0.015 µM, partner dose 0.08 µM) | 87.2 | 75.5 | 106 | 79.8 | 91.8 | 75.3 | 79.1 | 118 | 98.3 | 73.5 | 86.1 | 88.6 | 66.7 | 93 | 97.9 | 114
Cn1cnc2c(F)c(Nc3ccc(Br)cc3Cl)c(C(=O)NOCCO)cc21 [selumetinib] + CCCCCCCCCCCC1=C(O)C(=O)C=C(O)C1=O [Embelin] (first compound 0.015 µM, partner dose 1.2 µM) | 98.1 | 96.8 | 108 | 102 | 92.5 | 84.8 | 64.5 | 126 | 102 | 75.9 | 90.3 | 107 | 77.4 | 75.8 | 70.7 | 99.2
COc1cc([C@@H]2c3cc4c(cc3[C@@H](O[C@@H]3O[C@@H]5CO[C@@H](C)O[C@H]5[C@H](O)[C@H]3O)[C@H]3COC(=O)[C@H]23)OCO4)cc(OC)c1O [etoposide] + CN1CCN(c2ccc3nc(-c4c(N)c5c(F)cccc5[nH]c4=O)[nH]c3c2)CC1 [Dovitinib] (first compound 0.02 µM, partner dose 0.1 µM) | 86.6 | 88.8 | 94.3 | 99.8 | 90 | 92.2 | 101 | – | – | 85.7 | 82.8 | 84.3 | 89.9 | 100 | 88.5 | 77.9
COc1cc([C@@H]2c3cc4c(cc3[C@@H](O[C@@H]3O[C@@H]5CO[C@@H](C)O[C@H]5[C@H](O)[C@H]3O)[C@H]3COC(=O)[C@H]23)OCO4)cc(OC)c1O [etoposide] + O=C(O)c1ccc(-c2c[nH]c3ncc(-c4ccccc4)cc23)cc1C1CCCC1 [GSK650394] (first compound 0.02 µM, partner dose 0.16 µM) | 82.1 | 92.1 | 102 | 72.9 | 85.7 | 86.3 | 96.8 | 102 | 80.6 | 60.9 | 78.2 | 105 | 88.9 | 124 | 97 | 76.5
CCN(CC)CCNC(=O)c1c(C)[nH]c(/C=C2\C(=O)Nc3ccc(F)cc32)c1C [sunitinib] + Cc1ccc(NC(=O)c2cccc(N(C)C)c2)cc1NC(=O)c1ccc(O)cc1 [ZM336372] (first compound 0.4 µM, partner dose 2 µM) | 85 | 96.1 | 107 | 130 | 103 | 104 | 77.4 | 110 | 111 | 91.6 | 96.6 | 128 | 85 | 90.8 | 90.7 | 108

— the supplement of paper PMC4604168 (melanoma cell lines)
